Test results as given in PubChem BioAssay AID2147 (National Center for Advancing Translational Sciences (NCATS), 2009).
Several values for one entry are separate records, joined by “and”; a condition that tells them apart may be missing. Equal entries are not always repeated. In all, about 230,000 compounds went through this assay and about 3,600 (1.6%) were called active. Inconclusive means that the source gave no clear call. Such entries were picked first, then a sample of the others. The call rests on the fitted dose curve; in most records, active means well fitted inhibition curve with a large enough effect (not every such curve was filed as active); inconclusive means small, poorly fitted or top-dose-only effect, or another doubt; inactive means no such curve, though single readings can be large or run the other way. Potencies beside an inconclusive call are fits to weak or partial responses and may not hold up.

Each compound was assayed against Lysine-specific demethylase 4E (Homo sapiens) (UniProt B2RXH2) (assay: qHTS Assay for Inhibitors of Human Jumonji Domain Containing 2E (JMJD2E)). Details: JMJD2E catalytic domain, FDH-coupled NADH fluorescence (FDH is formaldehyde dehydrogenase); series mostly up to 57.1 µM.
Sequence of UniProt B2RXH2 (B2RXH2 whole entry, looked up, the tested form may be a part): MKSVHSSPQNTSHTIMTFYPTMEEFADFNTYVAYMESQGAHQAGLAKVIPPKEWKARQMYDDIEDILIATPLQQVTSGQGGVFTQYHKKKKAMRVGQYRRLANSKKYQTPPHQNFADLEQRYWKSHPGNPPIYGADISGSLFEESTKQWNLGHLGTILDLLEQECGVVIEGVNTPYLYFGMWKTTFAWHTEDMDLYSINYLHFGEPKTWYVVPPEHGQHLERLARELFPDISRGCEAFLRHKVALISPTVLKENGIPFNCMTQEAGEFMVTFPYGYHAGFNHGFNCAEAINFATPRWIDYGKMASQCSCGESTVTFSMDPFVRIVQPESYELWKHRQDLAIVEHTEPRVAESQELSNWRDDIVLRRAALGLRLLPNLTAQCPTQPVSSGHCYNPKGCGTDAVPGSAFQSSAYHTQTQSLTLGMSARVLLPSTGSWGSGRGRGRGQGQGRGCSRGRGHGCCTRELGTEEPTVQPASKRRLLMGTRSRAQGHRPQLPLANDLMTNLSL
Further: nearly all actives have a fitted effect of over 50% in size.
Potency means the concentration at half of the fitted maximal effect; tags describe the fitted curve by direction and shape.

Row | Structure (SMILES) | Potency
1 | COc1ccc(-c2[nH]nc(-c3ccccc3)c2-c2nc3ccccc3[nH]2)cc1 | inconclusive: 35.5 µM [inhibitor, single point]
2 | O=C(COC(=O)/C=C/c1nc2ccccc2s1)Nc1ccccc1Oc1ccccc1 | inconclusive: 39.8 µM [inhibitor, single point]
3 | Nc1c(C(=O)N/N=C/c2ccc(F)cc2)oc2nc(-c3ccccc3)cc(-c3ccco3)c12 | inconclusive: 28.2 µM [inhibitor, partial curve]
4 | CCN(CC)S(=O)(=O)c1ccc(Cl)c(NC(=O)c2ccncc2)c1 | inconclusive: 1 µM [inhibitor, single point]
5 | CCN1CCN(C2=CC3=CC(=C(C#N)C#N)CCC3CC2)CC1 (configuration not stated) | inconclusive: 22.4 µM [inhibitor, single point]
6 | O=C(NNc1c2ccccc2nc2ccccc12)c1cc2ccccc2cc1O | inconclusive: 28.2 µM [inhibitor, partial curve]
7 | Cc1cc(NC(=O)CN2CCN(c3ccc(O)cc3)CC2)no1 | inconclusive: 2.82 µM [inhibitor, partial curve, poor fit]
8 | COC(=O)Nc1nnc(-c2ccc(OC)cc2)s1 | inconclusive: 28.2 µM [inhibitor, partial curve]
9 | COc1ccc(CNC(=O)c2cccs2)cc1 | inactive
10 | N#C/C(=C\c1ccc(N2CCOCC2)o1)c1nc2ccccc2[nH]1 | inconclusive: 14.1 µM [inhibitor, partial curve]
11 | COc1ccccc1NS(=O)(=O)c1cccc(C(=O)N/N=C/c2ccc3c(c2)OCCO3)c1 | inconclusive: 35.5 µM [inhibitor, single point]
12 | C=CCn1c(=O)c(C(=O)Nc2ccccc2C(=O)OCC)c(O)c2ccccc21 | inconclusive: 31.6 µM [inhibitor, partial curve]
13 | NNC(=O)CSc1nnnn1-c1ccccc1 | inactive
14 | COCCn1c(SC(C)C(=O)Nc2ccc3c(c2)OCCO3)nc2ccccc2c1=O (configuration not stated) | inconclusive: 22.4 µM [inhibitor, single point]
15 | CCCCCCC(C)OC(=O)Nc1cccc2ccccc12 (configuration not stated) | inconclusive: 39.8 µM [inhibitor, single point]
16 | COc1ccc(NC(=O)/C(C#N)=C\c2ccc(OCc3ccc(C(=O)O)cc3)c(OC)c2)cc1 | inconclusive: 35.5 µM [inhibitor, single point]
17 | O=C(NCCCN1CCCC1=O)c1ccc2c(=O)n(-c3ccccc3F)c(=S)[nH]c2c1 | inconclusive: 25.1 µM [inhibitor, partial curve]
18 | O=C(OCc1cc(=O)n2c(n1)sc1ccccc12)c1ccc(O)cc1O | inconclusive: 39.8 µM [inhibitor, single point]
19 | Cn1c(=O)c2[nH]c(N=NNc3ccccc3F)nc2n(C)c1=O | inconclusive: 39.8 µM [inhibitor, single point]
20 | Cc1csc(NC(=O)CN2CCCCCC2)n1 | inconclusive: 39.8 µM [inhibitor, single point]
21 | Cc1cc(C(=O)N/N=C/c2cc(Cl)cc([N+](=O)[O-])c2O)n[nH]1 | active: 17.8 µM
22 | COc1ccc(CCNC2CC(=O)N(CCc3ccc(OC)c(OC)c3)C2=O)cc1OC (configuration not stated) | inactive
23 | O=C(Nc1ncn[nH]1)c1ccccc1O | inconclusive: 31.6 µM [inhibitor, partial curve]

Row | Structure (SMILES) | Potency
24 | O=C(NNc1c2ccccc2nc2ccccc12)C12CC3CC(CC(C3)C1)C2 | inconclusive: 31.6 µM [inhibitor, single point]
25 | Cc1ccc2cc(NC(=O)Cc3ccccc3)ccc2n1 | inconclusive: 31.6 µM [inhibitor, single point]
26 | O=C1NC2(Nc3ccccc31)C(=O)Nc1ccc(Br)cc12 (configuration not stated) | inconclusive: 25.1 µM [inhibitor, partial curve]
27 | CN(C)c1cc[n+](CC(=O)Nc2ccc(Oc3ccccc3)cc2)cc1 | inactive
28 | CCc1ccc(O)c(N=Cc2ccccc2O)c1 | inconclusive: 10 µM [inhibitor, partial curve]
29 | CCOc1cc2c(cc1OCC)C(C(=O)O)C(c1cc(OC)c(OC)c(OC)c1)N(C)C2=O (configuration not stated) | inconclusive: 28.2 µM [inhibitor, single point]
30 | COc1cccc(C2C(C(=O)Nc3nc4ccccc4s3)=C(C)NC3=C2C(=O)CC(C)(C)C3)c1OC (configuration not stated) | inconclusive: 6.31 µM [inhibitor, partial curve]
31 | COc1ccc2c(c1)O[C@H](c1ccc3c(c1)OCO3)[C@@H](OC(=O)NCCc1ccc(OC)c(OC)c1)C2=O | inactive
32 | COc1ccc(CNC(=O)c2c(O)c3cccc4c3n(c2=O)CCC4)cc1 | active: 0.794 µM
33 | Cc1ccc(/C=C/C(=O)N2CCN(c3ncccn3)CC2)o1 | inconclusive: 25.1 µM [inhibitor, single point]
34 | CCOC(=O)N1CCN(S(=O)(=O)c2ccc(C(=O)Nc3nnc(C4CC4)o3)cc2)CC1 | inconclusive: 39.8 µM [inhibitor, single point]
35 | Cn1c(SCc2ccc(Cl)cc2)nnc1C1CC1 | inconclusive: 35.5 µM [inhibitor, single point]
36 | Cc1ccc(-c2cn3c(=O)cc(C)[nH]c3n2)cc1 | inconclusive: 14.1 µM [inhibitor, partial curve]
37 | N#C/C(=C(/O)CO/N=C/c1ccccc1Cl)c1nc2ccccc2[nH]1 | inactive
38 | COc1ccc(-n2ncc3c(N4CCN(c5cc(C)ccc5C)CC4)ncnc32)cc1 | inconclusive: 3.55 µM [inhibitor, single point]
39 | Cc1ccc(NC(=O)c2cc3c(s2)CCCC3)cc1S(=O)(=O)Nc1ccccc1Cl | inconclusive: 35.5 µM [inhibitor, single point]
40 | CC1CC(C)CN(C(=O)Nc2ccccc2F)C1 (configuration not stated) | inconclusive: 35.5 µM [inhibitor, single point]
41 | CCOC(=O)COc1ccc2nsnc2c1 | inconclusive: 28.2 µM [inhibitor, partial curve]
42 | O=C1N/C(=C\c2ccc(N3CCOCC3)c(F)c2)C(=O)N1Cc1ccccc1 | inconclusive: 12.6 µM [inhibitor, partial curve]
43 | COc1ccc(-c2ccc(C)cc2)cc1[C@H]1[C@H]2C=CC[C@@H](C)[C@@H]2C(=O)N1Cc1ccccc1 | inconclusive: 39.8 µM [inhibitor, single point]
44 | Cc1cccc(NC(=S)NC(=O)/C=C/c2ccco2)n1 | inconclusive: 39.8 µM [inhibitor, single point]
45 | O=C(c1ccco1)N1CCN(c2nc3ccccc3c(=O)n2-c2ccccc2)CC1 | inconclusive: 28.2 µM [inhibitor, single point]
46 | O=C(CC1C(=O)NCCN1CC1CCCCC1)NCc1ccc(F)cc1 (configuration not stated) | inconclusive: 31.6 µM [inhibitor, partial curve]

Row | Structure (SMILES) | Potency
47 | Cc1ccc(-c2noc(CCC(=O)NCc3ccco3)n2)cc1 | inactive
48 | CSc1nc2ccc(NS(=O)(=O)c3cccc(Cl)c3Cl)cc2s1 | inactive
49 | O=C(CN1CCN(c2ncc(C(F)(F)F)cc2Cl)CC1)N1CCN(c2ncc(C(F)(F)F)cc2Cl)CC1 | inactive
50 | COc1ccccc1-c1cc(C2CC2)nc(N)c1C#N | inconclusive: 31.6 µM [inhibitor, partial curve]
51 | COc1ccc(CNc2nc3nc(-c4ccccc4)cc(=O)n3[nH]2)cc1OC | inconclusive: 39.8 µM [inhibitor, single point]
52 | CCCNC(=O)c1cc2c3ccccc3n(C)c2s1 | inconclusive: 25.1 µM [inhibitor, partial curve]
53 | CCN(CC)CCCNC(=O)Cn1nc([N+](=O)[O-])c(Cl)c1C | inactive
54 | N#C/C(=C\c1cccc(NC(=O)c2ccccc2Cl)c1)C(=O)NCCc1ccccc1 | inconclusive: 39.8 µM [inhibitor, single point]
55 | Cc1cc(=O)oc2cc(O)ccc12 | inconclusive: 20 µM [inhibitor, single point]
56 | CNC(=O)c1cc2c(cn1)[nH]c1ccccc12 | inconclusive: 35.5 µM [inhibitor, partial curve] and inconclusive: 25.1 µM [inhibitor, partial curve]
57 | NS(=O)(=O)c1ccc(NC(=S)NC2CC2)cc1 | inconclusive: 22.4 µM [inhibitor, single point]
58 | O=C(N/N=C/c1cc([N+](=O)[O-])ccc1O)C1CCCCC1 | active: 7.08 µM
59 | CCOc1ccccc1NC(=O)COC(=O)c1cc[n+]([O-])cc1 | inactive
60 | O=C(O)c1c2c(nc3ccccc13)/C(=C/c1ccc(O)cc1)CCC2 | inconclusive: 39.8 µM [inhibitor, single point]
61 | C=CCOc1c(Br)cc(CNc2ccc(NC(=O)CCC)cc2)cc1OCC | inactive
62 | Cc1ccc(-c2nn(-c3ccccc3)cc2/C=N/n2c(-c3ccncc3)n[nH]c2=S)cc1 | inactive
63 | Cc1ncoc1C(=O)N1CCCC(C(=O)c2ccc3c4c(cccc24)CC3)C1 (configuration not stated) | inconclusive: 28.2 µM [inhibitor, partial curve]
64 | CCOC(=O)CNC(=O)N1CCCC(C(=O)c2cccc(Cl)c2)C1 (configuration not stated) | inactive
65 | O=S(=O)([O-])C/C(=C\c1ccc(Cl)cc1)c1cc[n+](CCO)cc1 | inconclusive: 35.5 µM [inhibitor, single point]
66 | CCOC(=O)N1CCN(C(=O)CSc2nnc(Cc3cccn3C)n2CCc2ccccc2)CC1 | inactive
67 | COc1ccc(CN2CCn3ncc(C(=O)Nc4ccc(Cl)cc4Cl)c3C2=O)cc1 | inconclusive: 4.47 µM [inhibitor, single point]
